Reference: PubChem BioAssay AID1745853 (National Center for Advancing Translational Sciences (NCATS), 2022)
The list shows a part of the results. Further columns of the screen follow, without active or inactive calls.

Legend:
Assay in all cases: Primary Screen for Target Class Profiling of Small Molecule Inhibitors of Methyltransferases
[1] = target: Glycine N-methyltransferase (Homo sapiens) (UniProt Q14749); settings: purified enzyme, MTase-Glo SAH luminescence; measured here: GNMT inhibition; at 40 µM; stronger effect = lower value
How it was run: (§1)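 Each enzyme was reacted with SAM and its substrate, with compounds tested once at 40 uM; SAH formed was read by MTase-Glo luminescence.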

[2] = target: Guanidinoacetate N-methyltransferase (Homo sapiens) (UniProt Q14353); settings: purified enzyme, MTase-Glo SAH luminescence; measured here: GAMT inhibition; at 40 µM; stronger effect = lower value
How it was run: as §1

[3] = target: Histamine N-methyltransferase (Homo sapiens) (UniProt P50135); settings: purified enzyme, MTase-Glo SAH luminescence; measured here: HNMT inhibition; at 40 µM; stronger effect = lower value
How it was run: as §1

[4] = target: Nicotinamide N-methyltransferase (Homo sapiens) (UniProt P40261); settings: purified enzyme, MTase-Glo SAH luminescence; measured here: NNMT inhibition; at 40 µM; stronger effect = lower value
How it was run: as §1

[5] = target: Phenylethanolamine N-methyltransferase (Homo sapiens) (UniProt P11086); settings: purified enzyme, MTase-Glo SAH luminescence; measured here: PNMT inhibition; at 40 µM; stronger effect = lower value
How it was run: as §1
% is scaled to controls: 0 for no effect and ±100 for the full control effect.

Row | SMILES | activity change, negative = inhibition [1] | activity change, negative = inhibition [2] | activity change, negative = inhibition [3] | activity change, negative = inhibition [4] | activity change, negative = inhibition [5]
1 | Cc1ccccc1CN1CCC(CN(Cc2cccnc2)C(=O)Cc2ccccc2)CC1 | -8.02% | -6.8% | -16.6% | -13.1% | -11.2%
2 | C#Cc1cccc(C(=O)N2CCC(Cc3ccc(Cl)cc3)(C(=O)OCC)CC2)c1 | -6.21% | -7.72% | -3.49% | -17.5% | 2.98%
3 | Cc1ccc(Cn2c(=O)c3ccccc3n3c(=O)n(Cc4ccc(F)cc4)nc23)cc1 | 6.4% | 0% | 11.1% | 7.23% | 6.75%
4 | CC1CCC(NC(=O)C2(C)Cn3c(ccc3-c3ccccc3)C(=O)N2CCC2=CCCCC2)CC1 (stereo not drawn) | 8.87% | 0% | 6.01% | 6.32% | 2.82%
5 | CCCN(C)C(=O)Cn1c(C)ccc(NS(=O)(=O)c2ccc(C)cc2)c1=O | -4.56% | -5.88% | -3.27% | -8.06% | -20.6%
6 | OC[C@H]1O[C@@H](OC/C=C/c2ccc(O)cc2)[C@H](O)[C@@H](O)[C@@H]1O | -5.66% | -16.2% | -0.123% | -20.5% | -11.2%
7 | COc1ccc(-c2cc3n(n2)CC(C)(C(=O)NC2CCCCC2)N(C2CCCCC2)C3=O)cc1OC (stereo not drawn) | 3.4% | 1.58% | 10.6% | 10.6% | 3.55%
8 | CC1(C(=O)NC2CCCCCCC2)Cn2c(ccc2-c2ccco2)C(=O)N1CCCc1ccccc1 (stereo not drawn) | -9.38% | 1.34% | -0.245% | -9.89% | -6.06%
9 | Cc1cccc(-c2n[nH]n3c2nc(=O)c2ccc(C(=O)N4CCN(c5ccc(F)cc5)CC4)cc23)c1 | -15.3% | -1.73% | -0.478% | -6.33% | -4.1%
10 | CC(C)COc1cc(=O)n2c(c1C(=O)NCCCN1CCOCC1)CCCCC2 | -0.155% | -0.805% | 1.54% | 3.4% | -1.75%
11 | COc1ccc2c(c1)c(NC(C)=O)c1n2CC(C)(C(=O)NC2CCCC2)N(Cc2ccco2)C1=O (stereo not drawn) | 4.86% | 0% | 11.7% | 13.9% | 4.29%
12 | Cc1cc(F)ccc1NC(=O)Cn1c(=O)oc2cc(S(=O)(=O)N3CC(C)CC(C)C3)ccc21 (stereo not drawn) | -2.54% | 1.67% | -5.82% | -5.62% | -5.21%
13 | Cc1ccc(C(=O)Cn2nc3n(C)c(=O)c4ccc(C(=O)NC5CCCC5)cc4n3c2=O)cc1 | 0.591% | 4.63% | -1.6% | 5.59% | 0.624%
14 | COCCN1C(=O)c2ccc(-c3ccccc3)n2CC1(C)C(=O)NC1CCCCCC1 (stereo not drawn) | 0.896% | 0% | -2.06% | -7.11% | -2.36%
15 | O=C1OCC(c2ccccc2)=C1Cc1ccccc1 | -0.405% | 1.08% | 9.46% | -20.3% | -10.9%
16 | CCCNC(=O)N[C@@H]1C=C(C(=O)N[C@H](CC(C)C)C(N)=O)C[C@@H](O)[C@@H]1O | -2.98% | -1.25% | 2.2% | 0.543% | -13.1%
17 | O=C(O)c1cnc(N2CCCCC2)nc1-c1ccncc1 | -6.84% | -7.84% | -7.45% | -7.51% | -10.7%
18 | Cc1nnc([C@@H]2CC(F)(F)CN2C(=O)c2ccoc2)o1 | -8.45% | -6.67% | -3.21% | -18% | -11.3%
19 | COc1cccc(CNC(=O)c2cc3n(n2)CC(C)(C(=O)NC2CCCC2)N(C)C3=O)c1OC (stereo not drawn) | -4.46% | -9.64% | 1% | -7.24% | -5.78%

Row | SMILES | activity change, negative = inhibition [1] | activity change, negative = inhibition [2] | activity change, negative = inhibition [3] | activity change, negative = inhibition [4] | activity change, negative = inhibition [5]
20 | O=C(CCc1nnc2ccc(NCCCN3CCCC3=O)nn12)NCc1ccc(F)cc1 | 4.9% | 2.86% | 14.9% | 3.69% | 10.9%
21 | CCc1ccc(NC(=O)Cn2nc3n(CCC(C)C)c(=O)c4ccc(C(=O)NC(C)C)cc4n3c2=O)cc1 | 7.54% | 0% | 8.48% | 3.36% | 5.8%
22 | CCCn1c(=O)c2ccc(Cl)cc2n2c(=O)n(CC(=O)Nc3cc(OC)cc(OC)c3)nc12 | 3.31% | 0% | 5.67% | -1.65% | 3.11%
23 | C=C(C)[C@@H]1CC[C@]2(C)CC[C@]3(C)C(CCC4[C@@]5(C)CC[C@H](O)C(C)(C)C5CC[C@]43C)C12 (stereo partly drawn) | 3.53% | 2.06% | 10.7% | -1.99% | 6.89%
24 | COc1cccc(C(c2sc3nc(-c4ccco4)nn3c2O)N2CCN(C)CC2)c1 (stereo not drawn) |  | 6.79% |  | -12.5% | -2.76%
25 | COc1ccc(-c2nn(-c3ccccc3C)cc2CN2C[C@@H](C)O[C@@H](C)C2)cc1F | -0.766% | 1.46% | -0.224% | 5.35% | 0.183%
26 | COCC1CN(C(=O)c2sccc2C)CC12CCOCC2 (stereo not drawn) | -5.28% | 0.59% | 0.867% | -0.854% | -0.523%
27 | COc1cccc(N2C(=O)NC(=NC3CCCC3)C23CCCN(C(=O)c2ccc(C)cc2)C3)c1 (stereo not drawn) | -2.06% | 3.13% | 0.144% | 4.83% | 2.99%
28 | CCN(Cc1cccc2nonc12)CC1CCCN(CCc2cccc(OC)c2)C1 (stereo not drawn) | -6.46% | -6.22% | -34.7% | -14.6% | -14.2%
29 | C#CCN(Cc1nc(-c2ccccc2OCC)oc1C)C1CCCCC1 | -2.68% | -4.68% | -4.39% | -6.29% | -7.42%
30 | COc1ccc(NC(=O)CCc2nnc3n(Cc4ccc(C)cc4)c(=O)c4ccccc4n23)cc1 | -7.75% | 4.25% | 1.7% | -7.34% | -3.17%
31 | CNC(=O)c1cc2n(n1)CC(C)(C(=O)NC1CCCCCC1)N(C)C2=O (stereo not drawn) | 7.28% | 1.32% | 3.44% | 8.19% | 2.58%
32 | COC(=O)C1=CN(CC(=O)NC(C)c2ccccc2)S(=O)(=O)N=C1C (stereo not drawn) | -2.54% | -1.15% | 2.3% | -0.368% | -1.36%
33 | CC(=O)N1c2ccc(S(=O)(=O)N3CCCC3)cc2CC1C(=O)NCc1c(C)nn(C)c1C (stereo not drawn) | 0.927% | 0% | 7.65% | -1.32% | 1.35%
34 | O=C(O)[C@@H]1C[C@H]2C[C@@H](CCc3nn[nH]n3)CC[C@H]2CN1 | -4.41% | -2.49% | 3.15% | -9.95% | -4.8%
35 | CC(C)NC(=O)c1ccc2c(=O)n(C)c3nn(CC(=O)Nc4ccccc4)c(=O)n3c2c1 | 6.7% | 4.93% | 9.62% | 2.23% | 8.52%
36 | COc1ccccc1CNC(=O)c1ccc2c(=O)n(-c3ccc(F)cc3)c3nnc(C)n3c2c1 | -5.38% | 1.22% | 4.41% | 9.27% | 1.5%
37 | Cc1c(C)n(Cc2ccc(-c3ccccc3C(=O)O)cc2)c2ccc(C(=O)N[C@@H](C)c3ccc([N+](=O)[O-])cc3)cc12 | -87% | -7.63% | -3.19% | -39.3% | -17.8%
38 | CCOC(=O)c1cc2n(n1)CC(C)(C(=O)NC1CCCCC1)N(c1ccc(C)cc1C)C2=O (stereo not drawn) | -2% | -0.569% | -8.33% | 2.08% | -1.94%
